# Results as given in PubChem BioAssay AID1345083 (National Center for Advancing Translational Sciences (NCATS), 2018).
# Hit rate of the full screen: of about 94,000 compounds, about 6,200 (6.6%) were called active. Inconclusive results, whose numbers are uncertain, are shown with a selection of clear calls. Calls come from the whole dose curve; as a rule, active = well fitted inhibition curve with a large enough effect; inconclusive = small, poorly fitted or top-dose-only effect; inactive = flat fitted curve, though single readings scatter. Potencies of inconclusive entries are doubtful fits and often do not repeat.
# Experiment: Cytotoxic Profiling in HEK 293 Cell Line of Diverse Libraries Using Quantitative High-Throughput Screening; note: nearly all actives have a fitted effect of over 60% in size
# Conditions: HEK 293 viability, ATP luminescence (CellTiter-Glo), 48-72 h; series mostly up to 115 µM
# Procedure, shortened: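 qHTS cytotoxicity; HEK 293, 250 cells/well; compound pinned; 48 or 72 hr, 37 degree Celsius, 5% CO2, 95% humidity; CellTiter-Glo, 10 min RT; luminescence (ATP).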
# Potency is the fitted concentration of half-maximal effect; tags give direction and shape of the fitted curve.
row,Compound,Potency
1,O=C(CN1C(=O)NC(c2ccccc2Cl)C2=C1COC2=O)Nc1cccc(C(F)(F)F)c1 (configuration not stated),"inconclusive: 50.1 µM [inhibitor, partial curve, poor fit]"
2,Cc1[nH]c2c(F)cccc2c1CC(=O)N(C)Cc1ccc2nsnc2c1,"inconclusive: 56.2 µM [inhibitor, partial curve, poor fit]"
3,O=C(c1ccnc2ccccc12)N1CCC2(CC1)Nc1ccccc1NC2=O,"inconclusive: 50.1 µM [inhibitor, partial curve, poor fit]"
4,COc1ccc(-c2noc(CC3CCN(C(=O)Cc4cccc(C)c4)CC3)n2)cc1,active: 39.8 µM
5,CCc1ccc(S(=O)(=O)N(C)CC2CCOCC2)cc1,"inconclusive: 89.1 µM [inhibitor, single point]"
6,O=C(c1ccc(Cl)cc1)N1CCC2(CC1)CC(c1cccc(C(F)(F)F)c1)=NO2,active: 31.6 µM
7,O=C(NCCc1ccc(Cl)cc1)C1CCCN(c2ccnc3ccnn23)C1 (configuration not stated),"inconclusive: 89.1 µM [inhibitor, single point]"
8,CN(Cc1ccccc1)Cc1cc(C[C@@H]2C[C@H](NC(=O)C3CC3)C2(C)C)no1,"inconclusive: 70.8 µM [inhibitor, partial curve, poor fit]"
9,Cc1ccc(NC(=O)c2ccc3c(c2)N(C)C2CCCCN2C3=O)cc1C (configuration not stated),"inconclusive: 50.1 µM [inhibitor, partial curve, poor fit]"
10,COCCNC(=O)c1ccc2nnc(-c3ccc([S+](C)(=O)[O-])cc3)n2c1,inactive
11,CNC(=O)[C@@H](c1ccccc1F)N1CCC[C@H]1C(=O)NCCN(C)C,"inconclusive: 112 µM [inhibitor, partial curve, poor fit]"
12,COc1cccc(-c2cc(C(=O)N(C)C)c3cnn(C)c3n2)c1,"inconclusive: 112 µM [inhibitor, single point]"
13,CC[C@H]1CN(C(=O)Nc2cccc(C(F)(F)F)c2)CC[C@H]1CC(=O)NCc1ccc(OC)cc1,active: 39.8 µM
14,O=C1CCN(Cc2ccncc2)CCCC(C(=O)NCCN2CCC(N3CCCCC3)CC2)CCN1 (configuration not stated),inactive
15,O=C(c1ccc(CC2CCN(C(=O)c3nccc4ccccc34)CC2)cc1)N1CCOCC1,"inconclusive: 89.1 µM [inhibitor, single point]"
16,CN1CCC(N2CCC(O)(c3csc(CN4CCc5ccccc5C4)n3)CC2)CC1,active: 39.8 µM
17,COc1ccccc1N1CCN(C(=O)c2noc(-c3ccc(C)cc3)n2)CC1,inactive
18,COc1ccccc1-c1cccc(CN2CCCC(C(=O)NCCc3ccc(F)cc3)C2)c1 (configuration not stated),"inconclusive: 22.4 µM [inhibitor, full curve, poor fit]"
19,CN(Cc1ccc(OC(F)(F)F)cc1)C1CCCc2ccccc21 (configuration not stated),inactive
20,COc1cccc(C(=O)N(C)C2CCc3ccccc32)c1 (configuration not stated),"inconclusive: 70.8 µM [inhibitor, partial curve, poor fit]"
21,O=C(Nc1ccccc1)N1CC(Oc2cccc(-c3nc(-c4ccccc4)no3)c2)C1,"inconclusive: 31.6 µM [inhibitor, full curve, poor fit]"

row,Compound,Potency
1,CN(C)C(=O)c1c[nH]c2cccnc12,inactive
2,COCCOC1CCOC2(CCN(C(=O)c3ccoc3)CC2)C1 (configuration not stated),inactive
3,Cc1noc(C)c1-c1cc2c(cc(C)n2C)c(NCc2ccncc2)n1,"inconclusive: 17.8 µM [inhibitor, partial curve, poor fit]"
4,Cc1noc(-c2cn(C3CCN(C(=O)Cc4ccc(OC(F)(F)F)cc4)CC3)nn2)n1,"inconclusive: 39.8 µM [inhibitor, partial curve, poor fit]"
5,COC(=O)C1=C(C)N=C2SC=C(CC(=O)N(C)Cc3ccco3)N2C1c1ccc(Cl)cc1 (configuration not stated),"inconclusive: 79.4 µM [inhibitor, partial curve]"
6,CCCc1noc(-c2nc(-c3ccccc3F)no2)n1,inactive
7,COc1ccc(-c2noc(CC3CCN(C(=O)CCCc4ccccc4)CC3)n2)cc1,active: 28.2 µM
8,O=C(NCc1c[nH]c2ncccc12)c1cccc(Br)c1,"inconclusive: 89.1 µM [inhibitor, partial curve]"
9,COCC1CN(C2CCC2)CC12CCN(C(=O)CCCc1ccccc1)CC2 (configuration not stated),active: 31.6 µM
10,CCCOc1cc(C)c2c(c1C)C[C@H](C(C)C(=O)N1CCC(O)CC1)CC2 (some centres not stated),"inconclusive: 70.8 µM [inhibitor, full curve, poor fit]"
11,CC(C)(C)c1ccnc(N[C@H]2CO[C@H]3[C@@H]2OC[C@@H]3NS(=O)(=O)c2cccs2)n1,"inconclusive: 31.6 µM [inhibitor, partial curve, poor fit]"
12,NC(=O)[C@@H](Cc1ccccc1)NC(=O)[C@@]1(O)C[C@@H](O)[C@H](O)[C@@H](NC(=O)Nc2ccc(OC(F)(F)F)cc2)C1,inactive
13,COC(=O)NC1CCN(C(=O)c2ccc(-c3cccs3)cc2)CC1,"inconclusive: 112 µM [inhibitor, partial curve, poor fit]"
14,Cc1cc(C)cc(C(=O)N2CCC[C@H]2c2nc(-c3ccccc3)no2)c1,"inconclusive: 50.1 µM [inhibitor, partial curve, poor fit]"
15,O=C(NCc1ccc(F)cc1)c1nc2sccn2c1-c1ccc(C(F)(F)F)cc1,"inconclusive: 35.5 µM [inhibitor, full curve, poor fit]"
16,CC(NC(=O)c1cccc2c1CCN2C(=O)Nc1ccc(F)cc1)c1ccccn1 (configuration not stated),"inconclusive: 50.1 µM [inhibitor, partial curve, poor fit]"
17,COc1ccc(F)cc1-c1ccc(CN2CCC(NC(=O)c3ccc(NC(C)=O)cc3)C2)cc1 (configuration not stated),"inconclusive: 39.8 µM [inhibitor, full curve, poor fit]"
18,O=C(CCc1ccccc1)N1CCC(c2n[nH]c(=O)n2-c2ccccc2)CC1,inactive
19,CN(CCN1CCOCC1)C(=O)c1cc(COc2cccc(F)c2)[nH]n1,inactive
20,CC1CCCCN1CCCNC(=O)c1cc2c(s1)CN(C1CCCC1)C2 (configuration not stated),active: 79.4 µM
21,O=C(c1nc2sccn2c1-c1ccc(F)cc1)N1CCCCC1,inactive
